Assay results reported in the supplement of paper PMC3334620.
Whole data set: some 33,000 sequences, median “E-score (-0.5 to 0.5)” near -0.043, cut for the highest 2% near 0.37. This is one part of the list.

The sequences below were run against T1, Upc2 (UniProt Q12151) (assay: PBM E-score (8-mer binding enrichment) (E-score (-0.5 to 0.5)); higher = stronger / more preferred TF binding; most listed sequences are background and not binding sites). Conditions: protein concentration: 200 nM; construct: GST-full length.
T1 sequence: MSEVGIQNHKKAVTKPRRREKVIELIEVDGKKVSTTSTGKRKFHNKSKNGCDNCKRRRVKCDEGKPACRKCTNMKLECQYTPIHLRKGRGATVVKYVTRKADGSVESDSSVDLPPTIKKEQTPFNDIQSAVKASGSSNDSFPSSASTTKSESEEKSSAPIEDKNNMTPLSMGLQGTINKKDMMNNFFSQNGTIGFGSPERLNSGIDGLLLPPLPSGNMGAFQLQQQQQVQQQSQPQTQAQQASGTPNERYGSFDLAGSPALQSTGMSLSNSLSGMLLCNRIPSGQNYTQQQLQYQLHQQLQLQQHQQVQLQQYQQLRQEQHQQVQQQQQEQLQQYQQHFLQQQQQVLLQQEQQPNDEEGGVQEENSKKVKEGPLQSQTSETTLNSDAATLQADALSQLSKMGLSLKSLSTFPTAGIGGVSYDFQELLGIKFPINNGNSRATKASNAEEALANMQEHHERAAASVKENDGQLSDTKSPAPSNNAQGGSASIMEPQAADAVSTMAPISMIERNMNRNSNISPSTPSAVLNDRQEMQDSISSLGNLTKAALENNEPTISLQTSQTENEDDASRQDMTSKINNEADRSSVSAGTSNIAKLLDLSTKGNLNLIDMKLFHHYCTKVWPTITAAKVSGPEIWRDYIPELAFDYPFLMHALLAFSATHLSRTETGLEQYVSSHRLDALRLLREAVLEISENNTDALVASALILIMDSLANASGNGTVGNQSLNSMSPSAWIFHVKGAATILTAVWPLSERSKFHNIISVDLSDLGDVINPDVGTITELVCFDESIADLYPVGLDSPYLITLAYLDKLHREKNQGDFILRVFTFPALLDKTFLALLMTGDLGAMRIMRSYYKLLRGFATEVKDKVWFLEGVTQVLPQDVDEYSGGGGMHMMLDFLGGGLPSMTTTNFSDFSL
Method in brief: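 Masliner-normalised scans of fluorescent anti-GST signal were the basis for scoring. That signal came from GST-tagged yeast transcription factors applied at about 100-200 nM to double-stranded universal all-10-mer Agilent arrays on fresh or once-stripped slides. Each ungapped eight-base word, pooled with its reverse complement, received an E-score from the Universal PBM Analysis Suite.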

Sequence	PBM E-score
AAGCGTGT	-0.116
AGCCAGTG	0.00163
TCGGGTCA	0.0854
CGCTATAA	0.187
CGCATAGA	0.158
AAACGCTT	0.156
TCTTAACA	0.0357
CACTTGAA	-0.0225
AGGAGCAT	-0.227
AGTTAACC	-0.00421
CGAGACGC	0.0677
AATACATT	-0.0263
CGTGACTA	-0.103
CTAATCGA	0.272
AATACCGA	0.096
ACTCTGAA	-0.087
AGATAAGA	0.0794
CTTACAGA	-0.17
AGCGCAGC	-0.0126
CAATGCAG	-0.225
CCCGATGA	-0.0985
TATGGCGA	0.0496

Sequence	PBM E-score
ATAGAGAA	-0.0905
CAGTCAAA	0.126
ACAGGCAC	-0.00991
CGGGTTCA	-0.0299
CATATAAC	0.0255
ACCCCACT	0.101
ACAGTATG	0.0307
AGTCCACA	-0.111
CACTTCCA	-0.0511
AGCGCCTC	-0.108
AAAGCAAC	0.00844
AACAGTCG	0.0536
GGGGATAA	-0.0271
CCCTTCGC	-0.101
ACTCCGGG	-0.0707
TCTAGCCA	-0.0821
AAATGTAT	0.0534
CAAGCCGA	-0.00778
GGTCTTCA	-0.237
AACATTAT	0.00065
CAGATGTA	-0.341
AAGCACAG	-0.167

Sequence	PBM E-score
ACATTGCG	0.0405
AACACCCA	-0.161
GCGCTGTA	-0.0139
GCACGAAA	0.127
ATTCGTGA	0.0183
GAGTGCCA	-0.207
ATAGAGAT	0.17
GCAGCCGA	-0.0888
ATCATATC	0.0735
GACAATGA	-0.175
GCCAAGTA	-0.0175
CGCTACTA	0.0957
TGCTGACA	-0.162
CGCAAAAA	0.192
CAAGAATC	-0.0877
ATCAACGA	0.184
CAGGACAC	-0.306
TATAATCA	0.0413
AACAACCG	0.176
AAATATAT	0.0465
GTAGAAAA	0.137
TGATCTAA	0.0543

Sequence	PBM E-score
AGGCTTCC	-0.133
CCCGTGAA	0.0941
TTGGTAAA	0.169
GAATCGCC	-0.0174
CGGATGTA	0.118
AGGAGGCA	-0.283
CTTGACTC	-0.0404
GCTGTGGA	-0.207
ACAGACGG	-0.125
AAATGGCC	-0.187
ACTTACGG	0.194
ATGAGGCC	-0.136
AGCCGATA	-0.157
GGTCTGAA	0.0866
CACGGTTA	0.0532
CCATAGAA	-0.25
CAAATTCC	0.0123
CAAAGGGA	-0.161
TGCGTTAA	0.238
ACGGCGGA	0.00882
